{"sequences": {"note": "Amino acid sequences for entries named in this document (tags omitted). A change or cut given only in a name is not applied to a line headed by its entry.", "UniProt Q24JK1": "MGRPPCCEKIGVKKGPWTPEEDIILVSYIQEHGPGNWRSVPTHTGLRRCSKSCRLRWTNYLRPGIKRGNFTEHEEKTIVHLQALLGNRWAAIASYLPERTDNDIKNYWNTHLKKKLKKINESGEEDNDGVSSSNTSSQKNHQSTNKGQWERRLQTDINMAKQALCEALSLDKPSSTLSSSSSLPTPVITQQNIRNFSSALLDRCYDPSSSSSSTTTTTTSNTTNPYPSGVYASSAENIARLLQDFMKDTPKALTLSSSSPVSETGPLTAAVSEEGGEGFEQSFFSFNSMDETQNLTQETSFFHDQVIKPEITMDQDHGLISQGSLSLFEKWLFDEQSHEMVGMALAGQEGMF"}, "source": "paper PMC5027273", "key": {"[1]": {"biological_target": "T1, GAL4 DNA-binding domain (BD)-MIEL1 fusion (MYB30-… E3 LIGASE 1) (Arabidopsis thaliana) (UniProt Q8VZK0)", "T1 sequence": "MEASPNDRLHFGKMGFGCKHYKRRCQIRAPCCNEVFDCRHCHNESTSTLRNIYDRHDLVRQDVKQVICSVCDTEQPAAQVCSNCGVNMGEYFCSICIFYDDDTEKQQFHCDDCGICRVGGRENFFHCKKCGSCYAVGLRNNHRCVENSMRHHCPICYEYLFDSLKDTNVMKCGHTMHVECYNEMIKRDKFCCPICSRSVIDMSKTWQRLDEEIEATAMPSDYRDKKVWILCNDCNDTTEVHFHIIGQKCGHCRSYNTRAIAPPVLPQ", "test": "two-hybrid; BD Matchmaker system, yeast AH109; BD-MIEL1 co-expressed with AD-MYB96; cell growth on selective media (-LWHA)"}, "[2]": {"biological_target": "T2, N-terminal region of MIEL1 (residues 1-140) (Arabidopsis thaliana) (UniProt Q8VZK0)", "T2 sequence": "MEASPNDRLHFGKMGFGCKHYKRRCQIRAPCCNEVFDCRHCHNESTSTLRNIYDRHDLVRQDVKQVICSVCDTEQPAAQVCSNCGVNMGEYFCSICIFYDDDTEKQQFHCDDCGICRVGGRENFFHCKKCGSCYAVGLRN", "test": "two-hybrid; BD Matchmaker system, yeast AH109; deletion constructs; beta-galactosidase activity in liquid culture with o-nitrophenyl-beta-D-galactopyranoside as substrate"}, "[3]": {"biological_target": "T3, ABI3 …ON PROTEIN 2 (AIP2), GAL4 BD fusion (Arabidopsis thaliana) (UniProt Q8RXD3)", "T3 sequence": "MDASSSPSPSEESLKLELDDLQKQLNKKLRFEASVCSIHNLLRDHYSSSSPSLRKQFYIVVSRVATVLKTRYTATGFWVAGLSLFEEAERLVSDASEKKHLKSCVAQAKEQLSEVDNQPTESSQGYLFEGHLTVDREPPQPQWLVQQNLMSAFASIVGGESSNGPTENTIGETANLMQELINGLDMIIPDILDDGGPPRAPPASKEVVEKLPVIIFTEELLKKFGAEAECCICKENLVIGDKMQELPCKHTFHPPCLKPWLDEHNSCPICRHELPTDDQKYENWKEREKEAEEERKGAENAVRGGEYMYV", "test": "two-hybrid; specificity test in yeast cells: GAL4 BD fusions of E3 Ub ligases co-expressed with GAL4 AD-MYB96; MIEL1 against other transcriptional regulators (Supplementary Fig. 6); read-out not stated"}, "[4]": {"biological_target": "T4, ARM REPEAT PROTEIN … WITH ABF2, GAL4 BD fusion (Arabidopsis thaliana) (UniProt B9DHT4)", "T4 sequence": "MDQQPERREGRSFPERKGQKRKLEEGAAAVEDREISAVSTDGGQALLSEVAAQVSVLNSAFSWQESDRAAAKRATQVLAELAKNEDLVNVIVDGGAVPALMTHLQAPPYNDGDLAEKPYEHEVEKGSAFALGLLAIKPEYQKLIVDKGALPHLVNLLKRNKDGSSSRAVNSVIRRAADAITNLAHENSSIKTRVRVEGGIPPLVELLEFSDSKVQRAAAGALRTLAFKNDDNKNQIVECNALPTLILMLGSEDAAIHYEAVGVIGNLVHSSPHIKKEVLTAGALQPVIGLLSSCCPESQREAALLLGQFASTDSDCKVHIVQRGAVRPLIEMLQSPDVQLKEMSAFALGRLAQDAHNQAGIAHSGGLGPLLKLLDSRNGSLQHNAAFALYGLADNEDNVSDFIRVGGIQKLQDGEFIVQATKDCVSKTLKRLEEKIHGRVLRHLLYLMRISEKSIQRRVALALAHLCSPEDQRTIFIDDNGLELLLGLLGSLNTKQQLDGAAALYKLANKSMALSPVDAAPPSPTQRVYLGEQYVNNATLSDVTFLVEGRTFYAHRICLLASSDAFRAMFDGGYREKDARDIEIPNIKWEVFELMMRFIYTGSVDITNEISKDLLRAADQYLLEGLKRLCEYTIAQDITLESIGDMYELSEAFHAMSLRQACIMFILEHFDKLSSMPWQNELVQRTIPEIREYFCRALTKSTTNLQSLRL", "test": "two-hybrid; specificity test in yeast cells: GAL4 BD fusions of E3 Ub ligases co-expressed with GAL4 AD-MYB96; MIEL1 against other transcriptional regulators (Supplementary Fig. 6); read-out not stated"}, "[5]": {"biological_target": "T5, ATL43, GAL4 BD fusion (Arabidopsis thaliana) (UniProt Q5EAE9)", "T5 sequence": "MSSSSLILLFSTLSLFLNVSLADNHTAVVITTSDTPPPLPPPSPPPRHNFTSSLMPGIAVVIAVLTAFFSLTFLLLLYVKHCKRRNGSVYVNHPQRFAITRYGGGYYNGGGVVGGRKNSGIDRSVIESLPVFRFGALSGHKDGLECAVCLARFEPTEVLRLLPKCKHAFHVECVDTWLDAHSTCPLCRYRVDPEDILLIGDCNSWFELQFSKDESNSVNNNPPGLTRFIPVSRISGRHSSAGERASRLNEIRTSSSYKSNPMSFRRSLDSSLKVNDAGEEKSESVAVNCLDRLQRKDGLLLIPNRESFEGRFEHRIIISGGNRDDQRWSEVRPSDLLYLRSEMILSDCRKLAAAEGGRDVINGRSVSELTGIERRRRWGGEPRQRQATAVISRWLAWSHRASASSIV", "test": "two-hybrid; specificity test in yeast cells: GAL4 BD fusions of E3 Ub ligases co-expressed with GAL4 AD-MYB96; MIEL1 against other transcriptional regulators (Supplementary Fig. 6); read-out not stated"}, "[6]": {"biological_target": "T6, CARBOXYL TERMINUS OF HSC70-… PROTEIN, GAL4 BD fusion (Arabidopsis thaliana) (UniProt Q9SRS9)", "T6 sequence": "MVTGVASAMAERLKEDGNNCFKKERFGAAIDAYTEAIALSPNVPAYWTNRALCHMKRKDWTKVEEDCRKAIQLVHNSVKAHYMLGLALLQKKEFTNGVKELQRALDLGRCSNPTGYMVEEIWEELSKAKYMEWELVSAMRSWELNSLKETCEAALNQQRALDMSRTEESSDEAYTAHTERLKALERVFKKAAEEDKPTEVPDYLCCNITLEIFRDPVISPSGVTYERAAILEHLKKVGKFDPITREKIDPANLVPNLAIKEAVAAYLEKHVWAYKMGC", "test": "two-hybrid; specificity test in yeast cells: GAL4 BD fusions of E3 Ub ligases co-expressed with GAL4 AD-MYB96; MIEL1 against other transcriptional regulators (Supplementary Fig. 6); read-out not stated"}, "[7]": {"biological_target": "T1, GAL4 DNA-binding domain (BD)-MIEL1 fusion (MYB30-… E3 LIGASE 1) (Arabidopsis thaliana)", "test": "two-hybrid; specificity test in yeast cells: GAL4 BD fusions of E3 Ub ligases co-expressed with GAL4 AD-MYB96; MIEL1 against other transcriptional regulators (Supplementary Fig. 6); read-out not stated"}, "[8]": {"biological_target": "T7, XERICO, GAL4 BD fusion (Arabidopsis thaliana) (UniProt Q9SI09)", "T7 sequence": "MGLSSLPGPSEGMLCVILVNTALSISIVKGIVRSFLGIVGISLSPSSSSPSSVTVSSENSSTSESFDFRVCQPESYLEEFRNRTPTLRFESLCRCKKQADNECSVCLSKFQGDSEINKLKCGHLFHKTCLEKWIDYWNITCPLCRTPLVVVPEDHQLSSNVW", "test": "two-hybrid; specificity test in yeast cells: GAL4 BD fusions of E3 Ub ligases co-expressed with GAL4 AD-MYB96; MIEL1 against other transcriptional regulators (Supplementary Fig. 6); read-out not stated"}, "[9]": {"biological_target": "T8, MIEL1 fused to the N-terminal half of EYFP (Arabidopsis thaliana) (UniProt Q8VZK0)", "T8 sequence": "T1 sequence", "test": "split reporter; BiFC; partial EYFP fusions transiently co-expressed in Arabidopsis protoplasts; confocal fluorescence microscopy"}, "[10]": {"biological_target": "T9, MIEL1-MYC (Arabidopsis thaliana) (UniProt Q8VZK0)", "T9 sequence": "T1 sequence", "test": "co-IP; MIEL1-MYC and MYB96-GFP transiently co-expressed in N. benthamiana leaves; extract precipitated with anti-MYC antibodies on Protein-A sepharose, 4 h at 4 °C; 25 mM Tris-HCl pH 7.5, 150 mM NaCl, 0.05% Nonidet P-40; blots with anti-MYC or anti-GFP"}, "[11]": {"biological_target": "T1, GAL4 DNA-binding domain (BD)-MIEL1 fusion (MYB30-… E3 LIGASE 1) (Arabidopsis thaliana)", "test": "two-hybrid; BD Matchmaker system, yeast AH109; deletion constructs; beta-galactosidase activity in liquid culture with o-nitrophenyl-beta-D-galactopyranoside as substrate"}}, "note": "No constants are given. Whether binding was seen depends on the method and setting. For some assays here: In cells and extracts the contact can be indirect. Some entries that bind do so weakly or less than the wild type. For some assays here: Tags and fused reporters may be left off the sequences shown.", "data": [{"substance": "GAL4 activation domain (AD)-MYB96 fusion, full-size MYB96 (from UniProt Q24JK1 1-352)", "values": [{"measurement": "binding", "setting": "[1]", "result": "binds"}, {"measurement": "binding", "setting": "[2]", "result": "binds"}, {"measurement": "binding", "setting": "[3]", "result": "no binding"}, {"measurement": "binding", "setting": "[4]", "result": "no binding"}, {"measurement": "binding", "setting": "[5]", "result": "no binding"}, {"measurement": "binding", "setting": "[6]", "result": "no binding"}, {"measurement": "binding", "setting": "[7]", "result": "binds"}, {"measurement": "binding", "setting": "[8]", "result": "no binding"}]}, {"substance": "MYB96 fused to the C-terminal half of EYFP (from UniProt Q24JK1 1-352)", "values": [{"measurement": "binding", "setting": "[9]", "result": "binds"}]}, {"substance": "MYB96-GFP (from UniProt Q24JK1 1-352)", "values": [{"measurement": "binding", "setting": "[10]", "result": "binds"}]}, {"substance": "N-terminal region of MYB96 (residues 1-143) (from UniProt Q24JK1 1-143) (domain or fragment)", "values": [{"measurement": "binding", "setting": "[11]", "result": "binds"}]}]}
